# PMC9911399, “Two distinct binding modes provide the RNA-binding protein RbFox with extraordinary sequence specificity”
# Positions count from the first letter of the chain named. The list shows a part of the results.
# B1: GGCGCCC (DNA:RNA)
# RNA: GGGAGACCGGAAUUCAGAUUGUCCGGCGCCCUUAAAUCCCGUCGUAGCCACCA
# DNA 1: CAATCTGAATTCCGGTCTCCC
# DNA 2: TGGTGGCTACGACGGGATT
# B2: UGAUCGU (DNA:RNA)
# RNA: B1 RNA with G25U, C27A, G28U, C30G, C31U
# DNA 1: CAATCTGAATTCCGGTCTCCC
# DNA 2: TGGTGGCTACGACGGGATT
# B3: AGUAUGU (DNA:RNA)
# RNA: B1 RNA with G25A, C27U, G28A, C29U, C30G, C31U
# DNA 1: CAATCTGAATTCCGGTCTCCC
# DNA 2: TGGTGGCTACGACGGGATT
# B4: UUGUGUG (DNA:RNA)
# RNA: GGGAGACCGGAAUUCAGAUUGUCCUUGUGUGUUAAAUCCCGUCGUAGCCACCA
# DNA 1: CAATCTGAATTCCGGTCTCCC
# DNA 2: TGGTGGCTACGACGGGATT
# B5: GUGAUCU (DNA:RNA)
# RNA: B1 RNA with G26U, C27G, G28A, C29U, C31U
# DNA 1: CAATCTGAATTCCGGTCTCCC
# DNA 2: TGGTGGCTACGACGGGATT
# B6: GCAGGCA (DNA:RNA)
# RNA: B1 RNA with G26C, C27A, C29G, C31A
# DNA 1: CAATCTGAATTCCGGTCTCCC
# DNA 2: TGGTGGCTACGACGGGATT
# B7: CUGUAUA (DNA:RNA)
# RNA: B4 RNA with U25C, G29A, G31A
# DNA 1: CAATCTGAATTCCGGTCTCCC
# DNA 2: TGGTGGCTACGACGGGATT
# B8: UGGGAGA (DNA:RNA)
# RNA: B1 RNA with G25U, C27G, C29A, C30G, C31A
# DNA 1: CAATCTGAATTCCGGTCTCCC
# DNA 2: TGGTGGCTACGACGGGATT
# B9: AUCGGAA (DNA:RNA)
# RNA: B1 RNA with G25A, G26U, C29G, C30A, C31A
# DNA 1: CAATCTGAATTCCGGTCTCCC
# DNA 2: TGGTGGCTACGACGGGATT
# B10: UAGCUGG (DNA:RNA)
# RNA: B4 RNA with U26A, U28C, G29U, U30G
# DNA 1: CAATCTGAATTCCGGTCTCCC
# DNA 2: TGGTGGCTACGACGGGATT
# B11: AUUUCAC (DNA:RNA)
# RNA: B1 RNA with G25A, G26U, C27U, G28U, C30A
# DNA 1: CAATCTGAATTCCGGTCTCCC
# DNA 2: TGGTGGCTACGACGGGATT
# B12: CUCGGCG (DNA:RNA)
# RNA: B1 RNA with G25C, G26U, C29G, C31G
# DNA 1: CAATCTGAATTCCGGTCTCCC
# DNA 2: TGGTGGCTACGACGGGATT
# B13: AGCUGUC (DNA:RNA)
# RNA: B1 RNA with G25A, G28U, C29G, C30U
# DNA 1: CAATCTGAATTCCGGTCTCCC
# DNA 2: TGGTGGCTACGACGGGATT
# B14: CGCGAUG (DNA:RNA)
# RNA: B1 RNA with G25C, C29A, C30U, C31G
# DNA 1: CAATCTGAATTCCGGTCTCCC
# DNA 2: TGGTGGCTACGACGGGATT
# B15: CGGUUUG (DNA:RNA)
# RNA: B4 RNA with U25C, U26G, G29U
# DNA 1: CAATCTGAATTCCGGTCTCCC
# DNA 2: TGGTGGCTACGACGGGATT
# B16: CGAUAAU (DNA:RNA)
# RNA: B1 RNA with G25C, C27A, G28U, C29A, C30A, C31U
# DNA 1: CAATCTGAATTCCGGTCTCCC
# DNA 2: TGGTGGCTACGACGGGATT
# B17: UCUGAAU (DNA:RNA)
# RNA: B1 RNA with G25U, G26C, C27U, C29A, C30A, C31U
# DNA 1: CAATCTGAATTCCGGTCTCCC
# DNA 2: TGGTGGCTACGACGGGATT
# B18: GCGGACA (DNA:RNA)
# RNA: B1 RNA with G26C, C27G, C29A, C31A
# DNA 1: CAATCTGAATTCCGGTCTCCC
# DNA 2: TGGTGGCTACGACGGGATT
# B19: UGUCACG (DNA:RNA)
# RNA: B1 RNA with G25U, C27U, G28C, C29A, C31G
# DNA 1: CAATCTGAATTCCGGTCTCCC
# DNA 2: TGGTGGCTACGACGGGATT
# B20: GAGACCG (DNA:RNA)
# RNA: B1 RNA with G26A, C27G, G28A, C31G
# DNA 1: CAATCTGAATTCCGGTCTCCC
# DNA 2: TGGTGGCTACGACGGGATT
# B21: UGCAGCU (DNA:RNA)
# RNA: B1 RNA with G25U, G28A, C29G, C31U
# DNA 1: CAATCTGAATTCCGGTCTCCC
# DNA 2: TGGTGGCTACGACGGGATT
# B22: AAGUCAA (DNA:RNA)
# RNA: B4 RNA with U25A, U26A, G29C, U30A, G31A
# DNA 1: CAATCTGAATTCCGGTCTCCC
# DNA 2: TGGTGGCTACGACGGGATT
# B23: AAGGAUG (DNA:RNA)
# RNA: B4 RNA with U25A, U26A, U28G, G29A
# DNA 1: CAATCTGAATTCCGGTCTCCC
# DNA 2: TGGTGGCTACGACGGGATT
# B24: GUCAUUG (DNA:RNA)
# RNA: B4 RNA with U25G, G27C, U28A, G29U
# DNA 1: CAATCTGAATTCCGGTCTCCC
# DNA 2: TGGTGGCTACGACGGGATT
# B25: CUAACUC (DNA:RNA)
# RNA: B1 RNA with G25C, G26U, C27A, G28A, C30U
# DNA 1: CAATCTGAATTCCGGTCTCCC
# DNA 2: TGGTGGCTACGACGGGATT
# B26: GUACCUG (DNA:RNA)
# RNA: B4 RNA with U25G, G27A, U28C, G29C
# DNA 1: CAATCTGAATTCCGGTCTCCC
# DNA 2: TGGTGGCTACGACGGGATT
# B27: CAGGACC (DNA:RNA)
# RNA: B1 RNA with G25C, G26A, C27G, C29A
# DNA 1: CAATCTGAATTCCGGTCTCCC
# DNA 2: TGGTGGCTACGACGGGATT
# B28: GUGGACC (DNA:RNA)
# RNA: B1 RNA with G26U, C27G, C29A
# DNA 1: CAATCTGAATTCCGGTCTCCC
# DNA 2: TGGTGGCTACGACGGGATT
# B29: GCGAUAG (DNA:RNA)
# RNA: B4 RNA with U25G, U26C, U28A, G29U, U30A
# DNA 1: CAATCTGAATTCCGGTCTCCC
# DNA 2: TGGTGGCTACGACGGGATT
# B30: CAAUGGU (DNA:RNA)
# RNA: B4 RNA with U25C, U26A, G27A, U30G, G31U
# DNA 1: CAATCTGAATTCCGGTCTCCC
# DNA 2: TGGTGGCTACGACGGGATT
# B31: GUAGACC (DNA:RNA)
# RNA: B1 RNA with G26U, C27A, C29A
# DNA 1: CAATCTGAATTCCGGTCTCCC
# DNA 2: TGGTGGCTACGACGGGATT
# Biological target: T1, RBFOX1 RRM RbFoxmut (Fox-RRM*) (Homo sapiens, UniProt Q9NWB1 109-208, R118D;E147R;N151S;E152T)
# T1 sequence: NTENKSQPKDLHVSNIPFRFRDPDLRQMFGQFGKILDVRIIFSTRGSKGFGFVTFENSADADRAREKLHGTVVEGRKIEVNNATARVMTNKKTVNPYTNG
# Assay: EMSA; HiTS-Eq, 1 nM pool, 10 min; buffer printed only for the single-RNA assays: 10 mM Tris pH 7.5, 150 mM NaCl, 3.4 mM EDTA, 0.001% NP-40, 30 C
# Details: tags: His6 N-terminal (pET28a); label: 5' 32P
# Method in brief: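 These values rest on relative association constants, computed from read-count changes of each RNA species versus the control reaction and normalised to the cognate motif. Reads came from free RNA recovered by 8% native PAGE after purified RbFox RRM (wild type or mutant) at increasing concentrations was equilibrated for 10 min in 50 µL with 1 nM of a 5′-radiolabelled pool with 7 randomized nucleotides and DNA-annealed flanks.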
row,Binder,binding signal
1,B1,0.0838 KA relative to UGCAUGU
2,B2,0.169 KA relative to UGCAUGU
3,B3,0.351 KA relative to UGCAUGU
4,B4,0.491 KA relative to UGCAUGU
5,B5,0.0684 KA relative to UGCAUGU
6,B6,0.0998 KA relative to UGCAUGU
7,B7,0.121 KA relative to UGCAUGU
8,B8,0.137 KA relative to UGCAUGU
9,B9,0.114 KA relative to UGCAUGU
10,B10,0.105 KA relative to UGCAUGU
11,B11,0.0956 KA relative to UGCAUGU
12,B12,0.118 KA relative to UGCAUGU
13,B13,0.2 KA relative to UGCAUGU
14,B14,0.16 KA relative to UGCAUGU
15,B15,0.633 KA relative to UGCAUGU
16,B16,0.0542 KA relative to UGCAUGU

row,Binder,binding signal
1,B17,0.0664 KA relative to UGCAUGU
2,B18,0.0656 KA relative to UGCAUGU
3,B19,0.162 KA relative to UGCAUGU
4,B20,0.0845 KA relative to UGCAUGU
5,B21,0.101 KA relative to UGCAUGU
6,B22,0.0881 KA relative to UGCAUGU
7,B23,0.174 KA relative to UGCAUGU
8,B24,0.169 KA relative to UGCAUGU
9,B25,0.0451 KA relative to UGCAUGU
10,B26,0.077 KA relative to UGCAUGU
11,B27,0.0581 KA relative to UGCAUGU
12,B28,0.0915 KA relative to UGCAUGU
13,B29,0.115 KA relative to UGCAUGU
14,B30,0.121 KA relative to UGCAUGU
15,B31,0.0704 KA relative to UGCAUGU
